Drawing on patent US8304419B2, “Chemical compounds” (priority 2007, dated 2012), this text covers IC50 for 18 molecules.

What all share (test): microbe, parasite or virus in culture
Test [1] deals with HIV-1 V106A RT mutant. Conditions: Human immunodeficiency virus 1, HeLa, read-out: V106A activity level, HeLa-CD4-LTR-β-gal cells, V106A virus.
Test [2] relates to HIV-1 K103N RT mutant. Conditions: Human immunodeficiency virus 1, HeLa, read-out: K103N activity level, HeLa-CD4-LTR-β-gal cells, K103N virus.
Test [3] has as its system HIV-1 Y181C RT mutant. Conditions: Human immunodeficiency virus 1, HeLa, read-out: Y181C activity level, HeLa-CD4-LTR-β-gal cells, Y181C virus.

Where a name gives a salt, the structure may show the parent alone.

With `N#Cc1cc(Cl)cc(Oc2c(Cl)ccc(CNC(=O)c3cc4cc(OCC[C@H](O)CO)ccc4[nH]3)c2F)c1` [Example 107, N-({4-chloro-3-[(3-chloro-5-cyanophenyl)oxy]-2-fluorophenyl}methyl)-5-{[(3S)-3,4-dihydroxybutyl]oxy}-1H-indole-2-carboxamide], the IC50 in test [1], in test [2] and in test [3] was less than 10 nM each time.
In the case of `Cc1cccc2cc(C(=O)NCc3ccc(Cl)c(Oc4cc(Cl)cc(C#N)c4)c3F)[nH]c12` [Example 108, N-({4-chloro-3-[(3-chloro-5-cyanophenyl)oxy]-2-fluorophenyl}methyl)-7-methyl-1H-indole-2-carboxamide], the IC50 in test [1], in test [2] and in test [3] was 10 to 1000 nM throughout.
Consider `N#Cc1cc(Cl)cc(Oc2c(Cl)ccc(CNC(=O)c3cc4cc(Cl)ccc4[nH]3)c2F)c1` [Example 109, 5-chloro-N-({4-chloro-3-[(3-chloro-5-cyanophenyl)oxy]-2-fluorophenyl}methyl)-1H-indole-2-carboxamide], for which the IC50 in test [1], in test [2] and in test [3] was 10 to 1000 nM each time.
As for `N#Cc1cc(Cl)cc(Oc2c(Cl)ccc(CNC(=O)c3cc4ccc(Cl)cc4[nH]3)c2F)c1` [Example 110, 6-chloro-N-({4-chloro-3-[(3-chloro-5-cyanophenyl)oxy]-2-fluorophenyl}methyl)-1H-indole-2-carboxamide], the IC50 in test [1], in test [2] and in test [3] was 10 to 1000 nM throughout.
`N#Cc1cc(Cl)cc(Oc2c(Cl)ccc(CNC(=O)c3cc4cc(N)ccc4[nH]3)c2F)c1` [Example 111, 5-amino-N-({4-chloro-3-[(3-chloro-5-cyanophenyl)oxy]-2-fluorophenyl}methyl)-1H-indole-2-carboxamide trifluoroacetate]: the results for the IC50 in test [1], in test [2] and in test [3] were 10 to 1000 nM, less than 10 nM and less than 10 nM, respectively.
Turning to `CC(C)(C)OC(=O)Nc1cccc2cc(C(=O)NCc3ccc(Cl)c(Oc4cc(Cl)cc(C#N)c4)c3F)[nH]c12` [Example 112, 1,1-dimethylethyl (2-{[({4-chloro-3-[(3-chloro-5-cyanophenyl)oxy]-2-fluorophenyl}methyl)amino]carbonyl}-1H-indol-7-yl)carbamate], the IC50 in test [1] is more than 1000 nM; in test [2] it was 10 to 1000 nM; in test [3] it was more than 1000 nM.
`N#Cc1cc(Cl)cc(Oc2c(Cl)ccc(CNC(=O)c3cc4cccc(N)c4[nH]3)c2F)c1` [Example 113, 7-amino-N-({4-chloro-3-[(3-chloro-5-cyanophenyl)oxy]-2-fluorophenyl}methyl)-1H-indole-2-carboxamide]: the IC50 in test [1] was 10 to 1000 nM; in test [2], less than 10 nM; in test [3] it was 10 to 1000 nM.
Regarding `N#Cc1cc(Cl)cc(Oc2c(Cl)ccc(CNC(=O)c3cc4cc(NC(=O)c5ccncc5)ccc4[nH]3)c2F)c1` [Example 114, N-({4-chloro-3-[(3-chloro-5-cyanophenyl)oxy]-2-fluorophenyl}methyl)-5-[(4-pyridinylcarbonyl)amino]-1H-indole-2-carboxamide], the IC50 in test [1] is 10 to 1000 nM; in test [2], less than 10 nM; in test [3], less than 10 nM.
On to `N#Cc1cc(Cl)cc(Oc2c(Cl)ccc(CNC(=O)c3cc4cc(NC(=O)c5cccnc5)ccc4[nH]3)c2F)c1` [Example 115, N-({4-chloro-3-[(3-chloro-5-cyanophenyl)oxy]-2-fluorophenyl}methyl)-5-[(3-pyridinylcarbonyl)amino]-1H-indole-2-carboxamide], for which the IC50 in test [1] was 10 to 1000 nM; in test [2], less than 10 nM; in test [3], less than 10 nM.
With `N#Cc1cc(Cl)cc(Oc2c(Cl)ccc(CNC(=O)c3cc4cc(NC(=O)CCN)ccc4[nH]3)c2F)c1` [Example 116, 5-(β-alanylamino)-N-({4-chloro-3-[(3-chloro-5-cyanophenyl)oxy]-2-fluorophenyl}methyl)-1H-indole-2-carboxamide], the IC50 in test [1] is 10 to 1000 nM; in test [2], less than 10 nM; in test [3] it was 10 to 1000 nM.
For `CC(C)(C)OC(=O)N1CCC[C@H]1C(=O)Nc1ccc2[nH]c(C(=O)NCc3ccc(Cl)c(Oc4cc(Cl)cc(C#N)c4)c3F)cc2c1` [Example 117, 1,1-dimethylethyl (2S)-2-{[(2-{[({4-chloro-3-[(3-chloro-5-cyanophenyl)oxy]-2-fluorophenyl}methyl)amino]carbonyl}-1H-indol-5-yl)amino]carbonyl}-1-pyrrolidinecarboxylate], the IC50 in test [1], in test [2] and in test [3] was 10 to 1000 nM throughout.
In the case of `N#Cc1cc(Cl)cc(Oc2c(Cl)ccc(CNC(=O)c3cc4cc(NC(=O)[C@@H]5CCCN5)ccc4[nH]3)c2F)c1` [Example 118, N-({4-chloro-3-[(3-chloro-5-cyanophenyl)oxy]-2-fluorophenyl}methyl)-5-(L-prolylamino)-1H-indole-2-carboxamide trifluoroacetate], the IC50 in test [1] was 10 to 1000 nM; in test [2], less than 10 nM; in test [3], 10 to 1000 nM.
Regarding `CNCC(=O)Nc1ccc2[nH]c(C(=O)NCc3ccc(Cl)c(Oc4cc(Cl)cc(C#N)c4)c3F)cc2c1` [Example 119], the IC50 in test [1] is 10 to 1000 nM; in test [2] it was less than 10 nM; in test [3], 10 to 1000 nM.
With `N#Cc1cc(Cl)cc(Oc2c(Cl)ccc(CNC(=O)c3cc4cc(NC(=O)CN)ccc4[nH]3)c2F)c1` [Example 120, N-({4-chloro-3-[(3-chloro-5-cyanophenyl)oxy]-2-fluorophenyl}methyl)-5-(glycylamino)-1H-indole-2-carboxamide trifluoroacetate], the IC50 was 10 to 1000 nM in test [1], less than 10 nM in test [2] and 10 to 1000 nM in test [3].
`CC(=O)Nc1ccc2[nH]c(C(=O)NCc3ccc(Cl)c(Oc4cc(Cl)cc(C#N)c4)c3F)cc2c1` [Example 121, 5-(acetylamino)-N-({4-chloro-3-[(3-chloro-5-cyanophenyl)oxy]-2-fluorophenyl}methyl)-1H-indole-2-carboxamide]: the IC50 in test [1] is 10 to 1000 nM; in test [2], less than 10 nM; in test [3], less than 10 nM.
In the case of `CC(=O)Nc1ccc2cc(C(=O)NCc3ccc(Cl)c(Oc4cc(Cl)cc(C#N)c4)c3F)[nH]c2c1` [Example 122, 6-(acetylamino)-N-({4-chloro-3-[(3-chloro-5-cyanophenyl)oxy]-2-fluorophenyl}methyl)-1H-indole-2-carboxamide], the IC50 in test [1], in test [2] and in test [3] was less than 10 nM throughout.
Take `N#Cc1cc(Cl)cc(Oc2c(Cl)ccc(CNC(=O)c3cc4ccc(N)cc4[nH]3)c2F)c1` [Example 123, 6-amino-N-({4-chloro-3-[(3-chloro-5-cyanophenyl)oxy]-2-fluorophenyl}methyl)-1H-indole-2-carboxamide trifluoroacetate]: the IC50 is 10 to 1000 nM in test [1], less than 10 nM in test [2] and less than 10 nM in test [3].
Turning to `N#Cc1cc(Cl)cc(Oc2c(Cl)ccc(CNC(=O)c3nc4ccc([N+](=O)[O-])cc4[nH]3)c2F)c1` [Example 124, N-({4-chloro-3-[(3-chloro-5-cyanophenyl)oxy]-2-fluorophenyl}methyl)-5-nitro-1H-benzimidazole-2-carboxamide], the IC50 in test [1], in test [2] and in test [3] was 10 to 1000 nM throughout.
